From the supplement of paper PMC5998384

Experiments:
HeLa Kyoto [1] = test: solubility in G1/S (NP-40 vs SDS abundance) (log2 ratio); higher = more soluble; conditions: cell cycle stage: G1/S
HeLa Kyoto [2] = test: solubility change mitosis vs G1/S (difference of NP-40 vs SDS log2 ratios) (log2 ratio difference); higher = more soluble in mitosis
HeLa Kyoto [3] = test: melting temperature (median over replicates), in situ; higher = more thermally stable
HeLa Kyoto [4] = test: thermal stability score vs G1/S (z-score of summed log2 fold changes over temperatures); higher = more thermally stable than in G1/S
[5] = cell cycle stage: early G1 (4.5 h after nocodazole release)
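For melting temperature (median over replicates), in situ in this document: HeLa Kyoto cells synchronized by double thymidine or nocodazole block, proteins quantified by TMT10plex mass spectrometry, three independent biological replicates.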
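For solubility change mitosis vs G1/S (difference of NP-40 vs SDS log2 ratios) in this document: synchronized HeLa Kyoto cells (double thymidine block for G1/S, nocodazole release for mitosis), protein amounts in NP-40 versus SDS lysates quantified by mass spectrometry, three biological replicates.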
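For solubility in G1/S (NP-40 vs SDS abundance) in this document: HeLa Kyoto cells arrested at G1/S by double thymidine block, proteins quantified by TMT10plex mass spectrometry in mild NP-40 versus SDS extracts, three biological replicates.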
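For thermal stability score vs G1/S (z-score of summed log2 fold changes over temperatures) in this document: synchronized HeLa Kyoto cells, proteins quantified by TMT10plex mass spectrometry, three biological replicates, mitosis taken 0.5 h after nocodazole release, G1/S directly after double thymidine block.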

| Substance | solubility in G1/S (log2) (HeLa Kyoto [1]) | solubility change mitosis (log2) (HeLa Kyoto [2]) | melting temperature (HeLa Kyoto [3]; cell cycle stage: G1/S) | melting temperature (HeLa Kyoto [3]; cell cycle stage: mitosis) | thermal stability score (HeLa Kyoto [4]; [5]) | thermal stability score (HeLa Kyoto [4]; cell cycle stage: mitosis) |
| --- | --- | --- | --- | --- | --- | --- |
| ANKRD27 (sequence left out) | -0.0142 | 0.0809 | – | – | – | – |
| ATP5B (sequence left out) | 0.272 | -0.0404 | 57.9 °C | 58.7 °C | -1.49 | -1.56 |
| CAMK2D (sequence left out) | -0.271 | 0.243 | 50 °C | 48.8 °C | 0.158 | 0.291 |
| CFL1 (sequence left out) | 0.193 | 0.0376 | 54.1 °C | 53.6 °C | -0.213 | -3.48 |
| CREB1 (sequence left out) | – | – | 54 °C | 54.1 °C | -0.817 | -2.32 |
| EIF2S3 (sequence left out) | 0.114 | -0.0876 | 53.3 °C | 53.5 °C | -0.232 | -1.62 |
| EPHA2 (sequence left out) | 0.0373 | -0.116 | 50.8 °C | 49.8 °C | -1.61 | -0.979 |
| GSN (sequence left out) | -0.463 | -0.028 | – | – | -0.349 | -1.14 |
| IQGAP1 (sequence left out) | 0.0423 | -0.248 | 50.9 °C | 50.1 °C | -1.44 | 1.51 |
| ISG15 (sequence left out) | 0.365 | 0.0549 | 49.3 °C | 49.9 °C | 0.389 | 0.493 |
| ITGA5 (sequence left out) | 0.172 | -0.0814 | 55.6 °C | 54.4 °C | -3.86 | -3.3 |
| KRAS (sequence left out) | -0.0783 | -0.0544 | 54.7 °C | 58.1 °C | -0.721 | -0.892 |
| LIG1 (sequence left out) | 0.0711 | -0.123 | 48.7 °C | 49.6 °C | 2.64 | 4.21 |
| MAAPVVAPPGVVVSRANKRSGAGPGGSGGGGARGAEEEPPPPLQAVLVADSFDRRFFPISKDQPRVLLPLANVALIDYTLEFLTATGVQETFVFCCWKAAQIKEHLLKSKWCRPTSLNVVRIITSELYRSLGDVLRDVDAKALVRSDFLLVYGDVISNINITRALEEHRLRRKLEKNVSVMTMIFKESSPSHPTRCHEDNVVVAVDSTTNRVLHFQKTQGLRRFAFPLSLFQGSSDGVEVRYDLLDCHISICSPQVAQLFTDNFDYQTRDDFVR[skipping about 20 residues]VSNLHMYSAVCADVIRRWVYPLTPEANFTDSTTQSCTHSRHNIYRGPEVSLGHGSILEENVLLGSGTVIGSNCFITNSVIGPGCHIGDNVVLDQTYLWQGVRVAAGAQIHQSLLCDNAEVKERVTLKPRSVLTSQVVVGPNITLPEGSVISLHPPDAEEDEDDGEFSDDSGADQEKDKVKMKGYNPAEVGAAGKGYLWKAAGMNMEEEEELQQNLWGLKINMEEESESESEQSMDSEEPDSRGGSPQMDDIKVFQNEVLGTLQRGKEENISCDNLVLEINSLKYAYNISLKEVMQVLSHVVLEFPLQQMDSPLDSSRYCALLLPLLKAWSPVFRNYIKRAADHLEALAAIEDFFLEHEALGISMAKVLMAFYQLEILAEETILSWFSQRDTTDKGQQLRKNQQLQRFIQWLKEAEEESSEDD [EIF2B5] | -0.261 | -0.0413 | 52 °C | 51.4 °C | -1.03 | -0.441 |
| MATANSIIVLDDDDEDEAAAQPGPSHPLPNAASPGAEAPSSSEPHGARGSSSSGGKKCYKLENEKLFEEFLELCKMQTADHPEVVPFLYNRQQRAHSLFLASAEFCNILSRVLSRARSRPAKLYVYINELCTVLKAHSAKKKLNLAPAATTSNEPSGNNPPTHLSLDPTNAENTASQ[skipping about 200 residues]ERKKRRARLQGTSSHSADTPEASLDSGEGPSGMASQGCPSASRAETDDEDDEESDEEEEEEEEEEEEEATDSEEEEDLEQMQEGQEDDEEEDEEEEAAAGKDGDKSPMSSLQISNEKNLEPGKQISRSSGEQQNKGRIVSPSLLSEEPLAPSSIDAESNGEQPEELTLEEESPVSQLFELEIEALPLDTPSSVETDISSSRKQSEEPFTTVLENGAGMVSSTSFNGGVSPHNWGDSGPPCKKSRKEKKQTGSGPLGNSYVERQRSVHEKNGKKICTLPSPPSPLASLAPVADSSTRVDSPSHGLVTSSLCIPSPARLSQTPHSQPPRPGTCKTSVATQCDPEEIIVLSDSD [DAXX] | 0.0801 | 0.0708 | 46.6 °C | 50.2 °C | 0.889 | 1.59 |
| MED12 | -0.0957 | -0.0564 | 48.7 °C | 49 °C | – | – |
| MST1R (sequence left out) | 0.0545 | -0.232 | 51.8 °C | 51 °C | 0.464 | 0.663 |
| NDUFS3 (sequence left out) | 0.256 | -0.0807 | 51.9 °C | 51.7 °C | 0.7 | -0.138 |
| NFS1 (sequence left out) | 0.0847 | -0.0733 | 53.6 °C | 53.5 °C | 0.362 | 0.272 |
| OPTN (sequence left out) | 0.435 | -0.0251 | 49.5 °C | 49.5 °C | -0.013 | 0.588 |
| PSMB4 (sequence left out) | 0.221 | -0.139 | 63.5 °C | 60.9 °C | -2.25 | -3.7 |
| PSMC3 (sequence left out) | 0.473 | -0.0533 | 52.9 °C | 53 °C | 1.39 | 0.471 |
| PSMD11 (sequence left out) | 0.28 | -0.0883 | 51.8 °C | 51.9 °C | 2.13 | 2.02 |
| PTPRF (sequence left out) | 0.0295 | -0.117 | 50.5 °C | 49.6 °C | -3.16 | -3.72 |
| ROR2 (sequence left out) | -0.0802 | -0.0835 | 51.1 °C | 50.9 °C | -0.94 | -1.07 |
| TIMP2 (sequence left out) | 0.27 | -0.00508 | 55.1 °C | 55.9 °C | 2.67 | 2.02 |
| TRIM5 (sequence left out) | 0.013 | -0.0572 | – | – | 0.322 | 0.0791 |
| [skipping about 600 residues]ILAKKKVMAPSKIKVKESSTKPDKKVSVPSGQIGGPIALPSDHQTGGLSIGASSRELPSQASGGLANPPPVNLEDSLDEDLIRNPASSVEAVSKELAALNSRAAGNSEFTLPAPSKAPAEKVGGVLCTEEKRNFAKPSPSAPPPASSLQSPLNFLAEQALALGQSSQEKKPESSGYKELSCQAPLNKGLPEVHQSKAKHHSLPRTSHGPQVAVPVPGPQVKVFHAGTQQQKNFTPPSPFANKLQGPKASPTQCHRSLLQLVKTAAKGQGFHPSAPATSGGLSASSSSSHKTPASSSSALSHPAKPHSVSSAGSSYKNNPFASSISKHGVSSGSSSSGGTPVQSSVSGSLVPGIQPPSVGQATSRPVPSSAGKKMPVSQKLTLVAPPGGPNGDSSGGTQGVAKLLTSPSLKPSAVSSVTSSTSLSKGASGTVLLAGSSLMASPYKSSSPKLSGAMSSNSLGIITPVPIPVHVLSFSADSSAKAGVSKDAIVTGPAPGSFHHGLGHSLLAGLHSSPPHAAPLPHAAVPTHIPQSLPGASQLHGKGPAVPRKL [UBN1] | -0.442 | 0.374 | – | – | – | – |
